Measured values: PubChem BioAssay AID1963576 (National Center for Advancing Translational Sciences (NCATS), 2024)
Screen size: about 46,000 compounds; about 60 (0.1%) were called active. Not shown: some 3% with an inconclusive outcome. The call rests on the fitted dose curve; in most records, active means well fitted inhibition curve with a large enough effect; inconclusive means small, poorly fitted or top-dose-only effect; inactive means no such curve, though single readings can be large or run the other way. The list shows a part of the results.

test: Primary qHTS assay for Inhibitors of ovarian cancer metastasis using an organotypic tumor microenvironment (TME) model.; further: nearly all actives have a fitted effect of over 65% in size;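 on activity change, negative = inhibition: plate controls were DMSO wells for no effect and tomatine positive control wells for full effect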; conditions: SKOV3ip1-GFP adhesion/invasion on 3D omental model, fluorescence; series mostly up to 45.8 µM; activity change, negative = inhibition: at the top concentration
In short: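 qHTS, 4-pt dose (0.36-46 umol/L); SKOV3ip1-GFP, 1,200 cells/well, no FBS; primary omental fibroblast/mesothelial co-culture 48 h pre-grown; 2 h RT + 16 h 37 C; PBS wash, 4% PFA; GFP count 488/509 nm.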

Row | SMILES | activity change, negative = inhibition | outcome
1 | Cc1cccc(C)c1NC(=O)c1cc(S(=O)(=O)N2CCc3ccccc3C2)ccc1F | inactive: 0.637% | –
2 | Cc1ccc2c(c1)N(C(=O)CCC(=O)NCc1cccc(F)c1)CC(C)O2 (configuration not stated) | inactive: 0.162% | –
3 | COc1ccc(CC(=O)Nc2nc3c(s2)CCCC3)cc1 | – | inactive
4 | CCC(=O)N1CCc2cc(S(=O)(=O)CCC(=O)N3CCN(c4cccc(C)c4C)CC3)ccc21 | inactive: -10.3% | –
5 | COc1cccc(NC(=O)c2c(C)oc3nc(C)nc(N4CCCC4)c23)c1 | inactive: 13.8% | –
6 | CCN1CCN(Cc2c(O)ccc3oc(C)c(C(=O)Nc4cccc(C(F)(F)F)c4)c23)CC1 | inactive: -12.2% | –
7 | CCN(CC)c1ccc2cc(-c3nc4sc5c(c4c(=O)[nH]3)CCC(C(C)(C)C)C5)c(=O)oc2c1 (configuration not stated) | – | inactive
8 | CCn1c(=O)c2sccc2n2c(CCCC(=O)N3CCN(c4ccc(F)cc4)CC3)nnc12 | inactive: 10.9% | –
9 | CCCCOc1ccc(C(=O)N(Cc2ccccc2)C2CCS(=O)(=O)C2)cc1 (configuration not stated) | inactive: 8.81% | –
10 | COC(=O)C[C@](O)(CCCC(C)(C)O)C(=O)O[C@@H]1C(OC)=C[C@]23CCCN2CCc2cc4c(cc2[C@H]13)OCO4 | inactive: -3.37% | –
11 | CC(=O)c1cccc(NC(=O)c2ccc3nc(Cc4ccccc4)oc3c2)c1 | inactive: 3.48% | –
12 | O=C(c1ccc(Cl)cc1)n1nc(-c2cccnc2)nc1NCc1ccc(F)cc1 | inactive: 1.24% | –
13 | CCOC(=O)c1cccc(NC(=O)CCS(=O)(=O)c2ccc3c(c2)CCN3C(=O)CC)c1 | inactive: 8.88% | –
14 | COc1cccc2cc(-c3nc(-c4ccc(Cl)cc4)cs3)c(=O)oc12 | inactive: 1.77% | –
15 | CCOc1ccc(-c2cc3c(=O)n(CC(=O)NCc4ccc(F)cc4)ccn3n2)cc1 | inactive: -7.63% | –
16 | Cc1csc2nc(COC(=O)CNC(=O)c3ccccc3)cc(=O)n12 | inactive: -3.22% | –
17 | COc1ccc(N2CCN(Cc3nc4c(c(=O)[nH]c(=O)n4C)n3Cc3ccccc3C)CC2)cc1 | inactive: -3.96% | –
18 | O=C(CSc1ncccc1C(=O)Oc1ccccc1Cl)Nc1ccc(C(F)(F)F)cc1Cl | inactive: -13.3% | –
19 | COC(=O)c1ccc(NC(=O)C(=O)NCCc2csc(-c3ccc(F)cc3)n2)cc1 | inactive: -0.654% | –
20 | Cc1ccc(O)c(NC(=O)C2=CC(c3ccco3)=NS(=O)(=O)N2C)c1 | inactive: 7.26% | –
21 | FC(F)(F)c1cc(-c2ccccc2)nc2cc(-c3ccccc3)nn12 | – | inactive
22 | CCc1nnc(NC(=O)CSc2nc3c([nH]c4ccccc43)c(=O)n2-c2ccc(Cl)cc2)s1 | – | inactive
23 | CCN(CC)S(=O)(=O)c1ccc2c(c1)N(CC(=O)Nc1cccc(C#N)c1)C(=O)CO2 | – | inactive
24 | COc1ccc(NC(=O)C2CCCN(S(=O)(=O)c3ccc(F)cc3)C2)cc1 (configuration not stated) | inactive: 8.57% | –

Row | SMILES | activity change, negative = inhibition | outcome
25 | Cc1ccc(CN(C(=O)COc2ccccc2[N+](=O)[O-])c2ccccn2)o1 | inactive: 5.41% | –
26 | O=c1oc2ccccc2cc1-c1cn2cc(Cc3cc(Cl)ccc3Cl)sc2n1 | – | inactive
27 | Cc1cc(F)ccc1NC(=O)Cn1cc(S(=O)(=O)NC(C)C)c(S(=O)(=O)NC(C)C)c1 | inactive: 4.39% | –
28 | COc1ccc(NC(=O)Cn2c(=O)oc3cc(S(=O)(=O)N4CCCCCC4)ccc32)cc1OC | inactive: 10.1% | –
29 | Cc1ccc2onc(CC(=O)N3CCN(c4cccc(Cl)c4)CC3)c2c1 | inactive: -14% | –
30 | CCOc1ccc(C(=O)Nc2nnc(SCc3cc(=O)n4ccccc4n3)s2)cc1 | – | inactive
31 | CCN(Cc1ccccc1)S(=O)(=O)c1cc(Br)cc2c1N(C(=O)C1CC1)CC2 | inactive: 9.54% | –
32 | Cc1ccc(NC(=O)c2cnc(N3CCCC3)nc2C)cc1F | inactive: 0.319% | –
33 | COc1cccc(C(=O)Nc2c(C(=O)Nc3ccc(F)cc3)oc3ccccc23)c1OC | inactive: -22.8% | –
34 | CCOc1ccc(-n2cc(-c3ccccc3)c3c(Nc4cccc(F)c4)ncnc32)cc1 | – | inactive
35 | O=C(c1ccccc1)N1CCN(CCc2ccccn2)CC1 | inactive: -6.75% | –
36 | COc1ccc(NC(=O)CNC(=O)Cn2c(C)cc3ccccc3c2=O)c(OC)c1 | – | inactive
37 | COc1ccccc1C(=O)Nc1c(C(=O)NC(C)(C)C)oc2ccccc12 | – | inactive
38 | Cc1ccc(-n2nc(C)c3c(C(F)(F)F)cc(-c4cccnc4)nc32)cc1Cl | – | inactive
39 | COc1cccc(NC(=O)CN2C(=O)c3ccccc3Sc3ncccc32)c1 | inactive: -3.98% | –
40 | COc1ccc(NC2=C(c3ccc(C(F)(F)F)cc3)C(=O)c3ccccc32)cc1 | inactive: -4.71% | –
41 | Cc1ccc(-c2nc(C)c(CCNC(=O)c3ccccc3Br)s2)cc1 | – | inactive
42 | CCCc1nn2c(=O)cc(COC(=O)CNC(=O)COc3ccc(C)cc3)nc2s1 | – | inactive
43 | COc1cc(OC)c(N(C)C(=O)Nc2cn(CC(C)C)c(=O)c3ccccc23)cc1Cl | inactive: -12.9% | –
44 | CCOC(=O)c1ccc(NC(=O)c2cn3c4c(ccc(Cl)c4c2=O)OC(C)C3)cc1 (configuration not stated) | inactive: 6.16% | –
45 | COc1ccc(S(=O)(=O)N2CCN(c3ccccc3OC)CC2)cc1 | inactive: -6.47% | –
46 | CCOC(=O)c1sc(NC(=O)c2c(-c3ccccc3)c(-c3ccccc3)nn(C)c2=O)nc1C | inactive: 5.49% | –
47 | CC1CCN(C(=O)CSc2nc(-c3ccc(F)cc3)cc(C(F)(F)F)n2)CC1 | – | inactive
